Measured values: the RNAGym collection of RNA variant scans (doi:10.1093/nar/gkz1192)
The source gives no read counts; variants with many changes may rest on few reads.

B1: CPEB3 Ribozyme (parent)
chain: UAACAGGGGGCCACAGCAGAAGCGUUCACGUCGCAGCCCCUGUCAGAUUCUGGUGAAUCUGCGAAUUCUGCUGUAUAUCUC

Variants of: B1
Test: self-cleavage, relative activity (ratio to wild type); higher = more cleavage; in vitro, sequencing
In short: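 Relative activity was defined as the cleaved/total read fraction for a variant divided by the same fraction for the unmutated ribozyme. CPEB3 self-cleaving ribozyme libraries were made by rounds of error-prone PCR, barcoded, and transcribed in vitro with T7 RNA polymerase for 5 hours at 37°C, and cleavage ran through transcription plus a 15 min DNase I step before EDTA. Illumina sequencing of template-switched reverse transcripts gave the reads, and DNA sequencing mapped the barcodes. Averages come from three batches, using variants with at least 5 reads.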

| Variant | self-cleavage |
| --- | --- |
| A56U A65G U66C A75U | 0.11 |
| A56U A65U U72C | 0.22 |
| A56U C62A G73A U78C | 0.21 |
| A56U C62G U69A | 0.32 |
| A56U C62U C71U A77U U78C | 0.19 |
| A56U C62U U67A | 0.44 |
| A56U C62U U76A | 0.27 |
| A56U C71U U80A | 0.41 |
| A56U G63U A75G | 0.93 |
| A56U G70U U72A U80C | 0.15 |
| A56U G73A U78C | 1.12 |
| A56U U58A C62U A64G | 0.07 |
| A56U U58A U60A A65G | 0.15 |
| A56U U58C U78A | 0.22 |
| A56U U60A A64G U69C | 0.24 |
| A56U U60A A65U U67A U80A | 0.24 |
| A56U U60A U78C U80C | 0.28 |
| A56U U60C U66A U76C | 0.22 |
| A56U U66C U74C | 0.25 |
| A56U U66C U80C | 0.24 |
| A56U U67A U69A | 0.22 |

| Variant | self-cleavage |
| --- | --- |
| A56U U67C C68A | 0.29 |
| A56U U69A U76C U80G | 0.1 |
| A56U U69C U80C | 0.32 |
| A56U U69G A75U | 0.5 |
| A56U U72A A77C | 0.36 |
| A56U U72C U74A A75G | 1.21 |
| A56U U72C U76A | 0.71 |
| A56U U74A U80C | 0.49 |
| A56U U76G C79A | 1.14 |
| A57C A64G U66C | 0.11 |
| A57C A64U U76C | 0.13 |
| A57C U66G U80A | 0.32 |
| A57C U67A A77G | 0.2 |
| A57C U67C U72A U78C | 0.1 |
| A57C U69C U78C | 0.17 |
| A57C U74A U78C | 0.85 |
| A57G A64G U66A U69A | 0.26 |
| A57G A64G U69A U72C | 0.33 |
| A57G A64G U69A U78A | 0.36 |
| A57G A64G U76C | 1.07 |
| A57G A64U U66A U74A | 0.21 |

| Variant | self-cleavage |
| --- | --- |
| A57G A64U U67C A75U U80C | 0.18 |
| A57G A64U U72C | 0.54 |
| A57G A64U U74A | 0.35 |
| A57G A65C U69C U80C | 0.19 |
| A57G A65G C71G | 0.23 |
| A57G A65G C79A | 0.22 |
| A57G A75G U80A | 0.95 |
| A57G A75U U78C | 1.07 |
| A57G A77G U78C | 1 |
| A57G C59A A64U | 0.12 |
| A57G C59A G61C | 0.1 |
| A57G C62G U67A C79U | 0.2 |
| A57G G61A U78C U80C | 0.22 |
| A57G G63A G73C U74A | 1.31 |
| A57G G63A U76C | 0.94 |
| A57G G63A U80C | 0.86 |
| A57G U58A A75G | 0.39 |
| A57G U58C U60C | 0.17 |
| A57G U58C U67C | 0.4 |
| A57G U58C U67C U69A | 0.4 |
| A57G U58C U69A U72C U78C | 0.23 |

| Variant | self-cleavage |
| --- | --- |
| A57G U58C U69C | 0.22 |
| A57G U58C U78G | 0.43 |
| A57G U58G U69A | 0.14 |
| A57G U60A A64G | 0.21 |
| A57G U60A C81U | 0.42 |
| A57G U60A U67G A77G U80C | 0.31 |
| A57G U60A U72A | 0.25 |
| A57G U60A U80C | 0.28 |
| A57G U60C G61A | 0.39 |
| A57G U60C U69C | 0.19 |
| A57G U60C U78C | 0.24 |
| A57G U66A U69A | 0.26 |
| A57G U66C A75U | 0.3 |
| A57G U66C G70U | 0.17 |
| A57G U66C U69A | 0.23 |
| A57G U66C U74C | 0.26 |
| A57G U67A C71U | 0.35 |
| A57G U67A C71U A75G U80A | 0.11 |
| A57G U67C U69C A77G | 0.22 |
| A57G U67C U74C | 0.33 |
| A57G U67C U80C | 0.34 |
